Measurements published in PubChem BioAssay AID1030 (National Center for Advancing Translational Sciences (NCATS), 2008).
“And” between values parts separate entries of the source, which are not always exact repeats. Equal values may be shown once. About 16,000 (7.3%) of roughly 220,000 compounds were called active. Inconclusive means that the source gave no clear call. Such entries were picked first, then a sample of the others. Calls come from the whole dose curve; as a rule, active = well fitted inhibition curve with a large enough effect (not every such curve was filed as active); inconclusive = small, poorly fitted or top-dose-only effect, or another doubt; inactive = no such curve, though single readings can be large or run the other way. A potency beside an inconclusive call is a rough fit, not a confirmed value.

Each compound was assayed against Aldehyde dehydrogenase 1A1 (Homo sapiens) (UniProt P00352) (assay: qHTS Assay for Inhibitors of Aldehyde Dehydrogenase 1 (ALDH1A1)). Settings: Purified ALDH1A1, NADH fluorescence, propionaldehyde substrate; series mostly up to 75.3 µM.
Potency is the fitted concentration of half-maximal effect; tags give direction and shape of the fitted curve.

Sequence of UniProt P00352 (P00352 whole entry, looked up): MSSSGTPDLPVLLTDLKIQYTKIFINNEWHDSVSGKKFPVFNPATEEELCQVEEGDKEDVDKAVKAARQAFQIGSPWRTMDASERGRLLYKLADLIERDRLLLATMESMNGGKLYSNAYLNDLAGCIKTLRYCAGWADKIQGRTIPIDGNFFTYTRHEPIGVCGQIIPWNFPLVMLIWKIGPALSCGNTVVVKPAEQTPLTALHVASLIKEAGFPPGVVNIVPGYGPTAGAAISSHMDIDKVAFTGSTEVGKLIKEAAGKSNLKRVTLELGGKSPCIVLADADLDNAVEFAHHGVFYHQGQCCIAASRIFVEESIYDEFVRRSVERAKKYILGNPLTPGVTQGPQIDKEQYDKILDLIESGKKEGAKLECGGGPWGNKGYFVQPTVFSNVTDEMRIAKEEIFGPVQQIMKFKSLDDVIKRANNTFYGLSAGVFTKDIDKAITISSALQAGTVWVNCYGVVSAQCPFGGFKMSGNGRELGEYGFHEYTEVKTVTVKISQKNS

Potency, active:
COc1cccc(-n2c(N)c(-c3nc4ccccc4[nH]3)sc2=S)c1 28.2 µM
CCC(=O)OCN1C(=O)C=CC1=O 1 µM
CC(=O)N(Cc1cc(=O)[nH]c2ccccc12)c1cccc(C)c1 20 µM
CC(Oc1ccccc1)C(=O)Nc1nc2c(s1)C(=O)CC(C)(C)C2 (stereo unspecified) 14.1 µM
COc1ccc(/C=C/C2=CC(C)(C)NC(=S)N2)c(OC)c1 0.708 µM
O=C(Nc1ccc(O)cc1)c1cc(S(=O)(=O)N2CCCC2)ccc1Cl 4.47 µM
CCOc1ccc(N(Cc2cc3ccc(C)cc3[nH]c2=O)C(=O)COC)cc1 17.8 µM

Potency, inconclusive:
CCOc1ccc(OCC)c(NC(=O)CN2CCN(C(=O)c3ccco3)CC2)c1 37.7 µM [inhibitor, single point]
CCc1cccc(NC(=O)CSC2=NS(=O)(=O)c3ccccc32)c1 0.501 µM [inhibitor, full curve, poor fit]
COc1ccc(OC)c2c(C)cc(N3CCCN(C)CC3)nc12 28.2 µM [inhibitor, single point]
CC(C)(C)NC(=O)NC(=O)COC(=O)c1ccc2c(c1)S(=O)(=O)N=C1CCCCCN12 25.1 µM [inhibitor, partial curve, poor fit]
COCC(C)n1c(SCc2ccc(C(=O)OC)o2)nc2ccccc2c1=O (stereo unspecified) 39.8 µM [inhibitor, single point]
COc1ccc(-c2nc(CSCC(=O)NCc3ccc4c(c3)OCO4)c(C)o2)cc1 39.8 µM [inhibitor, single point]
O=C(CSc1nnc(-c2n[nH]c3ccccc23)n1-c1ccccc1)Nc1ccccc1Cl 39.8 µM [inhibitor, single point]
C/C(O)=c1/ccc2cccc3nc(C)nc1c23 39.8 µM [inhibitor, single point]
CCc1ccccc1NC(=O)CSC1=C(C#N)C(c2ccc(O)c(OC)c2)C2=C(CCCC2=O)N1 (stereo unspecified) 39.8 µM [inhibitor, single point]
COc1cc(C(=O)NC(=S)NC(C)C)cc(OC)c1OC 39.8 µM [inhibitor, single point]
CC(C)C(C(=O)N1CCOCC1)N1C(=O)c2ccccc2C1=O (stereo unspecified) 39.8 µM [inhibitor, single point]
N#CC1=C(N)OC2=C(C(=O)CCC2)C1C1C=CCCC1 (stereo unspecified) 39.8 µM [inhibitor, single point]
O=S(=O)(Cc1ccccc1Cl)N1CCCCC1 15.8 µM [inhibitor, partial curve]
CCOC(=O)c1sc(=NC(=O)c2ccc(Cl)s2)n(C)c1C 39.8 µM [inhibitor, single point]
O=S(=O)(Cc1ccccc1)NCC1CCCN(Cc2ccc(F)c(F)c2)C1 (stereo unspecified) 44.7 µM [inhibitor, single point]
COC(=O)c1cc(-c2ccccc2)sc1NC(=O)c1cc(C)on1 37.7 µM [inhibitor, single point]
CCOC(=O)N1CCN(C(=O)c2cn(CC(C)C)c(=O)c3c2c2ccccc2n3C)CC1 22.4 µM [inhibitor, partial curve]
O=C(NC1CCCC1)c1ccc(S(=O)(=O)N2CCCC2)cc1 44.7 µM [inhibitor, single point]
O=C1c2ccccc2C(=O)c2c1ccc(O)c2O 31.6 µM [inhibitor, single point] and 18.9 µM [inhibitor, single point]
c1ccc(CSc2nnnn2-c2ccccc2)cc1 39.8 µM [inhibitor, single point]
COC(=O)c1ccc2c(=O)n(CCCCCC(=O)NCc3ccccn3)c(=O)[nH]c2c1 31.6 µM [inhibitor, partial curve]
CCn1c(O)c(N=NC(=O)C2C(=O)NCC2c2ccccc2)c2ccccc21 (stereo unspecified) 10 µM [inhibitor, partial curve]
Cc1nc2c(sc3nc4c(cc32)COC(C)(C)C4)c(=O)n1Cc1ccccc1 14.1 µM [inhibitor, partial curve]
Cc1ccc(NC(=S)N/C(=N/S(=O)(=O)c2ccccc2)c2ccccc2)cc1 35.5 µM [inhibitor, single point]
CCn1cc(C(=O)NCCCN2CC(C)CC(C)C2)c2cc(OC)c(OC)cc2c1=O (stereo unspecified) 39.8 µM [inhibitor, single point]
CSc1nnc(-c2cc(C)on2)n1-c1ccccc1 31.6 µM [inhibitor, single point]
Cc1ccc(-c2cc(-c3ccc(Cl)cc3)c(C#N)c(N)n2)o1 14.1 µM [inhibitor, partial curve]
CC(=O)Oc1ccc(NC(=O)Cc2ccccc2)c(C(=O)O)c1 39.8 µM [inhibitor, single point]

Potency, inactive:
Cc1ccc([N+](=O)[O-])cc1NC(=O)c1ccc(C(C)(C)C)cc1
O=C(NCCCO)C(=O)NCc1ccccn1
CCOC(=O)NC(=O)/C(C#N)=N/Nc1ccc(F)cc1
Cc1cc(C)n(-c2nnc(C)n2/N=C/c2cc(Br)ccc2OCc2ccccc2)n1
CC(=O)N1c2ccccc2C(C)CC12CCCCC2 (stereo unspecified)
COc1ccc(C/C(N)=N/OC(=O)c2ccc(Cl)cc2)cc1
O=C(c1ccc(S(=O)(=O)c2ccccc2)cc1)N1CCc2ccccc2C1
O=C(Nc1nnc(C2CC2)s1)c1cc(-c2ccccc2)nn1-c1ccccc1
CCN1C(=O)/C(=C2\C=Cc3ccccc3N2CC)SC1=S
COc1cc(C(C)=O)ccc1Oc1ncnc2c1cnn2-c1cccc(Cl)c1
CCOC(=O)N1CCN(CCC(=O)Nc2ccc(OC)cc2)CC1
